# Source: paper PMC4336329 (PLoS ONE, 2015)
# Hit rate of the full screen: of about 310,000 compounds, about 14,000 (4.5%) showed an effect of 50% or more. Effects have a minus sign here. The list shows a part of the results.
# Target: human ether-à-go-go-related gene (hERG) potassium channel (human, UniProt Q12809)
# Assay: primary screen, population patch clamp on CHO cells stably expressing hERG
# Procedure: Briefly, Chinese hamster ovary (CHO) cells stably expressing the hERG channel were dislodged from tissue culture flasks and dispensed into PPC plates. […] During the recording, background leak currents were estimated by a 100 ms step to -80 mV from an initial holding potential of -70 mV and subtracted from the subsequent current measurement. The campaign was conducted in two phases using slight differences in recording protocol. In the first phase, the initial voltage pulse used a 100 ms step to -30 mV from a holding potential of -70 mV, a 2 s conditioning step to +25 mV, and a 2 s test step to -30 mV. During the second phase of the screen, the potential during the conditioning step was raised to +45 mV. In both phases of the campaign, a secondary voltage pulse was applied using the same parameters as the second phase initial pulse. The initial and secondary pulses were applied in the absence of compound, and upon application of 1 μM and 10 μM test concentrations. […]
# 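Further: peak tail current of the secondary pulse compared with the same well before compound.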
# human ether-à-go-go-related gene (hERG) potassium channel, sequence (Q12809 whole entry, looked up): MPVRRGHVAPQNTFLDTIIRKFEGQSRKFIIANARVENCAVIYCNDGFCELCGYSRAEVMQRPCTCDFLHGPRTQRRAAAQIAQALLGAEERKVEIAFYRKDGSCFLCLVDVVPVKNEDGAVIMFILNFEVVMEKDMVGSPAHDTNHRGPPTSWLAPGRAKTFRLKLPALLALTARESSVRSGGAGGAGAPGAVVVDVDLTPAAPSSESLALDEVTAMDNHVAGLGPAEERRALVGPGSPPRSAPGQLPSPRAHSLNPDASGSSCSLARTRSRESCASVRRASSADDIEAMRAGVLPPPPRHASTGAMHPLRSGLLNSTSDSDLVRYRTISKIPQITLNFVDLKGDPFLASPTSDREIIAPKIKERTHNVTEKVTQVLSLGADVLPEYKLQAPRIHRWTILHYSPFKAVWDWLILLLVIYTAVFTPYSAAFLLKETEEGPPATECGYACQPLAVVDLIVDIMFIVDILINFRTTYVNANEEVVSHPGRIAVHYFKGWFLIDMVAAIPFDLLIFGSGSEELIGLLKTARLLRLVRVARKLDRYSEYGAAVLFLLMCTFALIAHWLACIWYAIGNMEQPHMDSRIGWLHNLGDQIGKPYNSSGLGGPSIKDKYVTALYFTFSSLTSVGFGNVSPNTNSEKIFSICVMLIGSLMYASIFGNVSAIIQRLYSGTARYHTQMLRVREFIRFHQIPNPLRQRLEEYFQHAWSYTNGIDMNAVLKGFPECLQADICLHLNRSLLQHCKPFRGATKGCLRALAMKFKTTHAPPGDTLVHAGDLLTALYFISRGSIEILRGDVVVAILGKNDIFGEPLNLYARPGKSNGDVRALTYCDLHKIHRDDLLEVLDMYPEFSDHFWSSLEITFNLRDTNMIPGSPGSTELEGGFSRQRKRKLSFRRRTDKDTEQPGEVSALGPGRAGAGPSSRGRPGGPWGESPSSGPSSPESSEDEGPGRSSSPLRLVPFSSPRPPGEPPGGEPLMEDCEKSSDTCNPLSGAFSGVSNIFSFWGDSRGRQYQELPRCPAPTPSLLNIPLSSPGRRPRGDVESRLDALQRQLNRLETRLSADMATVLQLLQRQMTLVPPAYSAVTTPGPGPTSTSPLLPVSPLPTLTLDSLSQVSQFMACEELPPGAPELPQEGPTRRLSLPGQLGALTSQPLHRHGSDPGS
row,Compound,"hERG current change (%, negative = inhibition) at 10uM [%]"
1,Cc1nnc(SCC(=O)c2ccc(C(C)C)cc2)s1,-0.941
2,COc1cc(C(=O)Nc2c(C(=O)O)[nH]c3ccc(C)cc23)cc(OC)c1OC,20.5
3,Cc1cccc(N2C(=O)CS/C2=N\NC(=O)c2cccnc2)c1C,7.11
4,O=C1C=C(NCc2ccc(Cl)cc2)CCC1,-25.2
5,C[C@H]1CC[C@@]2(O[C@@H](CCO)C[C@@H](O)[C@@H]2O)O1,18.6
6,Cc1ccc(C)c(C(=O)COC(=O)C(C)N2C(=O)C3C4CCC(C4)C3C2=O)c1 (centres unmarked),12
7,O=C(COc1ncnc2c(Cl)cc(Cl)cc12)Nc1cc([N+](=O)[O-])ccc1Cl,19.7
8,CC1(C)CC2(CC(C)(C)N1)OC(=O)N1CCc3ccccc3C12C (centres unmarked),8.28
9,CCCCCN(C(=O)CCC(=O)OCC(=O)N1CCCC(C)C1)c1c(N)n(CCCC)c(=O)[nH]c1=O (centres unmarked),10.8
10,CCCCNC(=O)COC(=O)c1ccc(C)c(NC(=O)c2ccco2)c1,-7.9
11,O=C(CCc1nnc(CCC2CCCCC2)o1)NCCn1cccn1,17.2
12,OCC(CO)(CO)NC(=S)Nc1cc(Cl)cc(Cl)c1,9.16
13,COc1cc(/C=N/S(=O)(=O)CCc2ccccc2)cc(OC)c1O,-3.95
14,COc1ccc(Cl)cc1NC(=O)CN1CCN(S(=O)(=O)c2ccc(F)cc2)CC1,-43.8
15,Cc1cc2c(cc1C)C(c1cccc(F)c1)CC(=O)N2 (centres unmarked),12
16,CCOC(=O)C1(CCOc2ccccc2)CCN(Cc2cc(OC)c3c(c2)OCO3)CC1,-72.1
17,CNC(=O)c1ccsc1NC(=O)CN1C(=O)CCC1=O,6.39
18,O=C(COc1cc2oc(=O)c3c(c2cc1Cl)CCC3)NCCCN1CCOCC1,7.01
19,O=C(COc1cccnc1[N+](=O)[O-])NCc1ccc2c(c1)OCO2,-26.2
20,CCCCC(=O)Nc1ccc(NC(=O)c2ccco2)cn1,10.1
21,Cc1nn2c(C)nc3sc4c(c3c2nc1=O)CC(C)(C)OC4,11.9
22,Cc1cccc(/C=N/NC(=O)c2ccc3c(c2)OCCO3)c1O,-0.0887
23,Cc1ccccc1C(=O)Nc1c2c(nn1C(C)(C)C)CS(=O)(=O)C2,2.99

row,Compound,"hERG current change (%, negative = inhibition) at 10uM [%]"
1,CCN(CC)/C(Sc1ccccc1)=C(\C(Cl)=C(Cl)Cl)[N+](=O)[O-],-5.29
2,CCOc1cccc(/C(O)=C2/C(=O)C(=O)N(CCOC)C2c2ccco2)c1 (centres unmarked),4.21
3,O=C(CSc1nc2ccccc2[nH]1)N1CCCCC1,-2
4,O=C(COn1nnc2ccc(Cl)cc21)Nc1ccc(F)cc1,14.5
5,CC(OC(=O)c1oc2ccccc2c1CSC1CCCCC1)C(=O)NC(N)=O (centres unmarked),7.78
6,COc1ccc(NC(=O)CSc2nc3ccccc3nc2N2CCOCC2)c(OC)c1,-5.88
7,CCOc1ccccc1OCC(=O)NC1CCCCC1,-13.7
8,CSc1ncc2ncn(C3OC(CO)C(O)C3O)c2n1 (centres unmarked),10.3
9,CCOC(=O)C1=C(C)NC(=NC)SC1c1ccccc1 (centres unmarked),11.3
10,CC1=C(C#N)C(=O)N(C2CCS(=O)(=O)C2)C(=O)/C1=C\c1ccc(C)o1 (centres unmarked),6.38
11,C[n+]1ccccc1/C=N/O.[Cl-],17.3
12,O=C1CC(c2ccccc2)n2nc(NC(=O)C3CCCO3)nc2N1 (centres unmarked),-10
13,CCCCCC(=O)c1ccc(O)cc1O,3.48
14,O=C(Nc1ccc(Cl)c([N+](=O)[O-])c1)c1ccc(NCCCN2CCOCC2)c([N+](=O)[O-])c1,-10.2
15,COc1ccc(/C=C/C(=O)NCc2ccc(F)cc2)cc1S(=O)(=O)N1CCOCC1,-24
16,CCN(Cc1cc2ccccc2[nH]c1=O)C(=O)C1CCCCC1,-13.3
17,O=C(NCC1CC1)C1(C(F)(F)F)CC(CCCO)CCCO1 (centres unmarked),20.5
18,O=C(OCc1cccc(C(F)(F)F)c1)c1cc(S(=O)(=O)N2CCOCC2)ccc1F,-8.25
19,COc1ccc(N(CC(=O)Nc2ccc(OC)cc2OC)S(=O)(=O)c2ccccc2)cc1,-1.33
20,Cc1nn(-c2ccccc2)c(N)c1N=Nc1ccc2ccccc2c1,6.88
21,CCOc1cc2c(cc1/C=C(/C#N)c1ccc(C(=O)O)cc1)OCO2,9.73
22,Cc1c(C)n(C)c2ccc(C(=O)NCCCN(C)C3CCCCC3)cc12,-44.6
23,CC(C)C(=O)Nc1cccc(-c2nc3ccccc3o2)c1,2.06

row,Compound,"hERG current change (%, negative = inhibition) at 10uM [%]"
1,COc1cccc(-c2ccc3nnc(SCC(=O)N4CCCC4)n3n2)c1,-17.1
2,CSc1ccc(Cl)c(C(=O)NCCOc2cc(C(C)C)ccc2C)c1,19.4
3,CC(=O)Nc1ccc(S(=O)(=O)NCC2CCC(C(=O)NC(C)c3ccc4c(c3)OCCO4)CC2)cc1 (centres unmarked),20
4,O=C(OCn1nnc2ccccc2c1=O)c1cccnc1,1.64
5,CN(C(=O)COC(=O)c1cc(=O)[nH]c2ccccc12)C1CCCCC1,-4.95
6,CCOc1c2ccc(C(=O)NC3CCCc4ccccc43)cc2nn1C (centres unmarked),-14.1
7,COc1cc(/C=N/Nc2nncn2/N=C/c2ccc(O)c(OC)c2)ccc1O,-39.7
8,COc1ccc(N2CCN(C(=O)c3ccc(-n4nc(C)cc4C)cc3)CC2)cc1,-19.4
9,CCOC(=O)n1c(SCC(=O)N(CC)CC)nc2ccccc21,-15.8
10,COc1cc2c(cc1OC)-c1nnc(C)n1C(C)(C)C2,12.1
11,O=C(NCc1ccccn1)Nc1cccc(NC(=O)NCc2ccccn2)c1,-26.9
12,O=C(Nc1c(C(=O)N2CCOCC2)cnn1-c1ccccc1)c1ccccc1,-1.05
13,C[n+]1cccc2c(Br)ccc([O-])c21.O,19.5
14,CC(C)Cn1c(N)c(C(=O)COC(=O)c2ccc(O)cc2O)c(=O)n(C)c1=O,8.34
15,CC(=NCCCn1ccnc1)C1=C(O)c2ccccc2C1=O,-68
16,CCc1ccc(NC(=O)CSc2nc3cc(C(=O)OC)ccc3c(=O)n2CC2CCCO2)cc1 (centres unmarked),-3.72
17,CCCCN(C(=O)c1oc2ccc(OCC)cc2c1C)c1c(N)n(CCCC)c(=O)[nH]c1=O,-2.38
18,Cc1c(O)nc(SCC(=O)Nc2nccs2)n(-c2ccccc2F)c1=O,7.42
19,N/C(=N\NC(=O)c1cccs1)c1cc2cc(Cl)ccc2oc1=O,12.3
20,C=CCN1C(=O)N(c2ccccc2)C(=O)C1CC(=O)Nc1ccc(OC)cc1 (centres unmarked),15.6
21,Cc1sc(NC(=S)NC(=O)c2ccc(C(C)(C)C)cc2)c(C#N)c1C,6.48
22,CCn1c(SCC(=O)Nc2nccs2)nnc1-c1ccncc1,10.8
23,Cc1cccc(C(=O)N2CCC(c3nc(-c4ccc(S(=O)(=O)N5CCOCC5)cc4)no3)CC2)c1,-3.33

row,Compound,"hERG current change (%, negative = inhibition) at 10uM [%]"
1,CCN1C(=O)/C(=C/N(C)c2ccccc2)OC1=S,-8.25
2,NC(=S)c1c(Cl)cc(C(F)(F)F)cc1Cl,9.27
3,CCCN(CCC)C(=O)CSc1nc2n[nH]c(C)c2c(=N)n1-c1ccc(OCC)cc1,2
4,CC(C)(C)CC(=O)Nc1cc2c3c(c1)CC(=O)N3CCC2,14.6
5,O=C(NCc1ccc2c(c1)OCO2)c1cccc(F)c1,7.11
6,S=c1[nH]nc(-c2ccccc2Br)n1Cc1ccccc1,13.4
7,O=C(NCc1cccs1)C1CCCCC1,-3.44
8,OCCOCCn1c2ccccc2c2ccccc21,-7.23
9,Cn1c(=O)c2c(nc(NCc3ccco3)n2Cc2ccccc2Cl)n(C)c1=O,13.2
10,Cc1ccc2nc(-c3ccccc3)c(-c3ccccc3)nc2c1,5.97
11,COc1nc(NCCO)nc(Nc2ccc([N+](=O)[O-])cc2)n1,-40.2
12,CC(C)Oc1ccc(C(=O)Nc2nnc(C3=COCCO3)o2)cc1,-21.6
13,CCn1ncc(S(=O)(=O)NCc2ccccc2Cl)c1C,5.66
14,Cc1cc(Br)ccc1SCC(=O)OC/C(O)=C(\C#N)c1nc2ccccc2[nH]1,2.31
15,CC(NC(=O)CN(Cc1ccccc1)S(=O)(=O)c1ccccc1)c1cccnc1 (centres unmarked),-15.8
16,CN1N=C(C(=O)N2CCN(c3ccc([N+](=O)[O-])cc3)CC2)CCC1=O,-73
17,COCc1ccc(-c2ccc3c(c2)c(C#Cc2ccsc2)c(-c2cc(OC)cc(OC)c2)n3C)cc1,6.72
18,CC1(c2ccccc2)NC(=O)N(CC(=O)Nc2ccc(N3CCOCC3)cc2N2CCOCC2)C1=O (centres unmarked),6.74
19,O=C(CN1C(=O)NC2(CCc3ccccc32)C1=O)Nc1ccc(Br)cc1F (centres unmarked),-11.3
20,COCC(C)OC(=O)c1c(N)n(CC(C)C)c2nc3ccccc3nc12 (centres unmarked),-67.8
